Laboratory results reported in PubChem BioAssay AID651820 (National Center for Advancing Translational Sciences (NCATS), 2012).
Hit rate of the full screen: of about 340,000 compounds, about 12,000 (3.5%) were called active. The inconclusive results got no clear call from the source; some entries with a clear call stand among them for comparison. The call rests on the fitted dose curve; in most records, active means well fitted inhibition curve with a large enough effect; inconclusive means small, poorly fitted or top-dose-only effect, or another doubt; inactive means no such curve, though single readings can be large or run the other way. No potency is given beside an inconclusive call; the fits are too rough.

assay: qHTS Assay for Inhibitors of Hepatitis C Virus (HCV); conditions: Huh7.5.1 HCVcc-Cre (HCVcc is cell-culture hepatitis C virus) infection, luciferase reporter, 44 h; series mostly up to 41.8 µM
Outline: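 Infectious HCV cell culture screen: compound-treated cells (1,000/well, pre-plated 4 h) are infected with HCVcc-Cre at roughly 0.5 moi and grown 44 h. Infection is quantified by luciferase signal after 15 min substrate incubation at room temperature.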
Potency means the concentration at half of the fitted maximal effect; tags describe the fitted curve by direction and shape.

Row | SMILES | Potency
1 | CC[C@]12c3[nH]c4cc(CCC(=O)N(C)C)ccc4c3CCN1C(=O)[C@@H](CC(=O)NC/C=C(\C)CCC=C(C)C)C[C@@H]2C(=O)N1CCN(C(=O)C2CC2)CC1 | inconclusive [inhibitor, partial curve]
2 | COC(=O)c1sc2cc([N+](=O)[O-])cc(SCC(C)C)c2c1N | inactive
3 | Cc1cc(C)c2cc(CN(CCO)Cc3nnnn3Cc3ccccc3)c(=O)[nH]c2c1 | inconclusive [inhibitor, single point]
4 | O=c1/c(=C/c2ccc([N+](=O)[O-])cc2)sc2n1CCCN=2 | inactive
5 | O=C(NC1CCCCC1)c1cc2nc3c(c(C(F)(F)F)n2n1)CCCC3 | inconclusive [inhibitor, single point]
6 | Cc1cccc(N2CCN(C(=O)c3cn(C)c(=O)c4c3c3ccccc3n4C)CC2)c1C | inconclusive [inhibitor, single point]
7 | COc1cccc(/C=N/NC(=O)c2cccc(N3CCCC3=O)c2)c1 | inconclusive [inhibitor, single point]
8 | Cc1ccc(S(=O)(=O)N(C)c2ccc(OC(C)C(=O)N3CCCC3)cc2)cc1C (stereo not given) | inactive
9 | COc1ccccc1-n1c2nc3ccccc3nc2c2c(=O)n(-c3cc(C)cc(C)c3)cnc21 | inconclusive [inhibitor, single point]
10 | Cc1ccc(CN(Cc2ccco2)C(=O)c2ccco2)cc1 | inconclusive [inhibitor, single point]
11 | O=C(NC1=NCCS1)c1ccccc1OCc1ccccc1Cl | active: 12.6 µM
12 | N#Cc1nc(-c2ccc(F)cc2)oc1NCc1cccc2c1OCO2 | inactive
13 | O=C(Nc1sc2c(c1-c1nc3ccccc3[nH]1)CCCC2)C1CCCC1 | inconclusive [inhibitor, partial curve]
14 | Cc1ccc(S(=O)(=O)N2CC(=O)N3CCN(CCN)C3C2)cc1 (stereo not given) | inactive
15 | COc1ccc(-c2cc(C(=O)N(C)Cc3ccccc3F)c3ccccc3n2)cc1OC | inconclusive [inhibitor, partial curve]
16 | CCCc1ccc(-c2cc(C(=O)NN3CCOCC3)c3ccccc3n2)cc1 | inconclusive [inhibitor, single point]
17 | C/C(=N\NC(=O)c1ccc(Cn2cc(Br)cn2)o1)c1cccc(NC(=O)C(C)C)c1 | inconclusive [inhibitor, partial curve]
18 | CCn1nc(C)c(CNC(=O)C2CCC(=O)N(CCc3ccc(Cl)cc3)C2)c1C (stereo not given) | inactive
19 | CCCn1c(N)c(C(=O)COC(=O)/C=C/c2ccc(OC(F)F)c(OC)c2)c(=O)[nH]c1=O | inconclusive [inhibitor, partial curve]
20 | O=C(CN1C(=O)/C(=C/c2ccco2)SC1=S)Nc1ccc(C(=O)O)c(O)c1 | inconclusive [inhibitor, single point]
21 | CCOC(=O)C(=O)N(Nc1ccccc1C)c1ccccc1C | inactive
22 | O=C(/C=C/c1ccccc1)c1ccc2c3c(cccc13)CC2 | inconclusive [inhibitor, single point]
23 | COC(=O)c1sc(-c2ccccc2)cc1NC(=O)C1CC1 | inconclusive [inhibitor, single point]
24 | Cc1ccc(NC(=O)c2ccc(OC(F)(F)F)cc2)cc1S(=O)(=O)N(C)C | active: 3.16 µM

Row | SMILES | Potency
25 | COc1cc(CNCC(O)c2ccccc2)ccc1OCc1ccc(Cl)nc1 (stereo not given) | inconclusive [inhibitor, single point]
26 | COc1ccc(O)c(CN2CCCC(C(=O)c3ccccc3SC)C2)c1 (stereo not given) | active: 11.2 µM
27 | COC(=O)c1sccc1NC(=S)Nc1ccc(F)cc1 | inactive
28 | Cc1cccc(NC(=O)/C=C/c2ccc([N+](=O)[O-])s2)c1 | active: 11.2 µM
29 | O=C(Nc1cccc(S(=O)(=O)N2CCOCC2)c1)C1CC(=O)N(c2ccc3c(c2)OCCO3)C1 (stereo not given) | inconclusive [inhibitor, partial curve]
30 | COc1ccc(CN(C)C(C)C(=O)NC2CCCc3ccccc32)cc1 (stereo not given) | inconclusive [inhibitor, single point]
31 | O=C(COC(=O)C12CC3CC(CC(Br)(C3)C1)C2)Nc1ccc2[nH]c(=O)[nH]c2c1 | inactive
32 | Cc1ccc(NC(=O)C/C(N)=N/OC(=O)Nc2cccc(C)c2)cc1 | inactive
33 | NC(=O)CSc1nc2cccnc2n1-c1ccc(F)cc1 | inactive
34 | O=C(Cc1ccsc1)N1CCN(S(=O)(=O)c2ccccc2F)CC1 | inactive
35 | COc1cccc2c(Cl)c(CC=C(Cl)Cl)c(C)nc12 | inconclusive [inhibitor, single point]
36 | Cn1c2ccccc2c2c(C(=O)O)cn(C3CCCC3)c(=O)c21 | inconclusive [inhibitor, single point]
37 | CN(C)CCn1nnnc1SCC1=C(C(=O)O)N2C(=O)[C@@H](NC(=O)Cc3csc(N)n3)[C@H]2SC1 | inconclusive [inhibitor, single point]
38 | Cc1ccc(NS(=O)(=O)c2cccc(C(=O)NCCc3c[nH]c4ccccc34)c2)c(C)c1 | inconclusive [inhibitor, full curve]
39 | CCCSc1nnc(CN2CCOCC2)n1C | inconclusive [inhibitor, single point]
40 | O=C(CSc1ccccc1)Nc1ccncc1 | inconclusive [inhibitor, full curve, poor fit]
41 | CCC(=O)NC(c1ccc(Cl)cc1Cl)c1ccc2cccnc2c1O (stereo not given) | active: 2.51 µM
42 | Nc1nc(N2CCN(Cc3ccccc3)CC2)n[nH]1 | inactive
43 | CCN1C(=O)[C@@H]2[C@@H](c3ccc(-c4ccc(Cl)c(Cl)c4)c(OC)c3)N3CCCC[C@@]3(C(=O)OC)[C@@H]2C1=O | inconclusive [inhibitor, single point]
44 | O=C(Nc1cccn(Cc2cccc(F)c2)c1=O)NC1CCCCC1 | inconclusive [inhibitor, single point]
45 | CSc1nc(N)c2c3c(sc2n1)CN(C)CC3 | inconclusive [inhibitor, single point]
46 | O=C1CCc2ccc(NS(=O)(=O)c3ccc(F)cc3)cc2N1 | inactive
47 | CCCn1c(=N)n(CC(=O)c2ccc([N+](=O)[O-])cc2)c2ccccc21 | active: 12.6 µM
48 | CCc1cc2c(cc3c(=O)n(CC(=O)NCCCN(CC)CC)nc(CC)n32)s1 | inconclusive [inhibitor, full curve]

Row | SMILES | Potency
49 | c1nc(NCC2(N3CCOCC3)CCCCC2)c2ccsc2n1 | inconclusive [inhibitor, single point]
50 | CCC1(C)CC(CCNCc2ccc(N(C)C)cc2)(c2ccc(F)cc2)CCO1 (stereo not given) | inconclusive [inhibitor, single point]
51 | O=C(Nc1cccc(S(=O)(=O)N2CCCCC2)c1)c1cncc(Br)c1 | inconclusive [inhibitor, single point]
52 | COc1ccc(/C=C/C(=O)Nc2ccccc2C(=O)N2CCCC2)cc1 | inactive
53 | CC(C)c1ccc(S(=O)(=O)N2CCC(C(=O)N3CCN(c4cccc(Cl)c4)CC3)CC2)cc1 | inconclusive [inhibitor, single point]
54 | Cc1ccc(/C=C/C(=O)c2ccc([N+](=O)[O-])o2)cc1 | active: 0.562 µM
55 | N/C(=N\OC(=O)c1cc(Cl)ccc1Cl)c1cccnc1 | inactive
56 | Cc1cc(-c2cccs2)c2c(N)c(C(=O)c3ccc4c(c3)OCO4)sc2n1 | inconclusive [inhibitor, single point]
57 | CCCCN(C)/C=N/c1c(C#N)cnn1-c1ccc(C)cc1 | inconclusive [inhibitor, single point]
58 | Cc1ccc(-n2nc3c(=O)n(CC(=O)NCc4cccs4)nc(C)c3c2C)cc1 | inconclusive [inhibitor, full curve]
59 | CC1CCCCN1S(=O)(=O)c1cccc2cccnc12 (stereo not given) | inactive
60 | COc1cc(/C=N/Nc2ncc(C(F)(F)F)cc2Cl)cc(OC)c1OC | inconclusive [inhibitor, partial curve]
61 | CCOC(=O)C1(C)C=C(Nc2ccc(O)cc2)C(=O)N1c1ccc(O)cc1 (stereo not given) | inactive
62 | COc1ccccc1N(CC(O)CN(c1ccccc1)S(C)(=O)=O)S(=O)(=O)c1ccccc1 (stereo not given) | inactive
63 | CC(=O)c1cccc(OCc2cc(C(=O)NC3CCN(Cc4ccccc4)CC3)no2)c1 | inconclusive [inhibitor, partial curve]
64 | CCCCc1ccc(N=N/C(C(=O)Nc2ccc(NC(C)=O)cc2OC)=C(/C)O)cc1 | inconclusive [inhibitor, partial curve]
65 | CCn1c(CSc2nc3ccccc3s2)nnc1SCC(=O)c1ccc(O)c(O)c1 | inconclusive [inhibitor, partial curve, poor fit]
66 | CCOC(=O)C1(Cc2ccccc2C)CCCN(C(=O)c2ccc(CSC)o2)C1 (stereo not given) | inactive
67 | CCn1cc(Cl)c(C(=O)N2N=C3/C(=C/c4cccs4)CCCC3C2c2cccs2)n1 (stereo not given) | inconclusive [inhibitor, single point]
68 | COc1ccc(CCNC(=O)CC(Cc2ccc(C)cc2)C(=O)O)cc1OC (stereo not given) | inactive
69 | CCOC(=O)C1=C(N)n2c(s/c(=C\c3ccco3)c2=O)=C(C(=O)OCC)C1c1ccco1 (stereo not given) | inconclusive [inhibitor, partial curve]
70 | CN(c1ccccc1)S(=O)(=O)c1cccc(NC(=O)COc2ccccc2)c1 | active: 10 µM
